Screen size: about 280,000 compounds; about 820 (0.29%) were called active. Inconclusive means that the source gave no clear call. Such entries were picked first, then a sample of the others. Calls come from the whole dose curve; as a rule, active = well fitted curve in either direction with a large enough effect; inconclusive = small, poorly fitted or top-dose-only effect; inactive = flat fitted curve, though single readings scatter. No potency is given beside an inconclusive call; the fits are too rough.
Test: Total Fluorescence Counterscreen for Inhibitors of the Interaction of Thyroid Hormone Receptor and Steroid Receptor Coregulator 2
Conditions: TRb/SRC2 Texas Red total fluorescence interference; series mostly up to 106 µM
How it was run: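 Flags fluorescent or light-absorbing compounds by total fluorescence, S + 2P, at 555 nm excitation and 632 nm emission. Mixture: 20 nM Texas Red SRC2 peptide, 0.6 uM human TRb LBD, 1 uM T3, 5% DMSO; compound exposure 5 h at ambient temperature.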
Potency is the fitted concentration of half-maximal effect; tags give direction and shape of the fitted curve or compound fluorescence and quenching.

Row | Compound | Potency
1 | CCOc1ccc(/C=N/NC(=O)CN2CCSCC2)cc1 | inconclusive [falling, partial curve, poor fit]
2 | O=C(O)c1cc(Cl)ccc1-c1ccc(/C=C/c2cc(C(F)(F)F)[nH]c(=O)n2)o1 | inactive
3 | COc1cccc(C2C=C(c3ccc(C)cc3)Nc3c(C(=O)Nc4ccc(F)cc4)cnn32)c1OC (stereo unspecified) | inconclusive [falling, full curve, poor fit]
4 | CC1=C(C#N)c2nc(N)c(C#N)c(C)c2/C1=C\c1ccc(-c2ccccc2C(=O)O)o1 | inconclusive [rising, partial curve, poor fit]
5 | COc1ccc(S(=O)(=O)N2CCN(C(=O)c3cc(-c4ccc(Br)cc4)n[nH]3)CC2)cc1OC | inconclusive [quencher, full curve]
6 | COc1ccc(/C=N/NC(=O)Cn2c(Cc3ccc(OC)c(OC)c3)nc3ccccc32)cc1OC | inconclusive [quencher, full curve]
7 | CCCCCOc1ccc(CSCCNC(=S)Nc2ccccc2)cc1 | inactive
8 | Nc1ccc(C(=O)OCC(=O)Nc2cc([N+](=O)[O-])ccc2F)cc1 | inconclusive [falling, full curve, poor fit]
9 | Cc1ccc2c(c1)-c1nc(-c3ccccc3)cc(-c3ccccc3)c1CO2 | inactive
10 | Cc1ccc(OCC(O)Cn2c3ccccc3c3ccccc32)cc1 (stereo unspecified) | inactive
11 | CS(=O)(=O)NC(=O)CCC/C=C\C[C@H]1C(=O)C[C@@H](O)[C@@H]1/C=C/[C@@H](O)COc1ccccc1 | inconclusive [quencher, partial curve]
12 | NC1=NC2CS(=O)(=O)CC2S1 (stereo unspecified) | inconclusive [falling, partial curve, poor fit]
13 | Clc1nssc1=Nc1ccc(Br)cc1 | inactive
14 | Cc1c(/C=C(\C#N)C(=O)Nc2cccc(Cl)c2)c2ccccc2n1Cc1ccccc1Cl | inconclusive [falling, full curve, poor fit]
15 | Cc1ccccc1NS(=O)(=O)c1ccc(Br)s1 | active: 112 µM [quencher]
16 | O=C(CCl)NCc1c(Cl)cccc1-n1cccc1 | inactive
17 | CCO[C@H]1OC(C(=O)N2CCOCC2)=C[C@@H](c2ccc(Br)cc2)[C@@H]1CCCO | inactive
18 | O=C(NNS(=O)(=O)c1ccc(F)c(Cl)c1)c1cccc(S(=O)(=O)N2CCOCC2)c1 | inconclusive [falling, partial curve, poor fit]
19 | O=S(=O)(c1ccccc1)c1nc(-c2ccc(Cl)cc2Cl)oc1N1CCCCCC1 | inactive
20 | Cc1cc(C)cc(N2CCn3c2nc2c3c(=O)n(Cc3ccc(Cl)cc3)c(=O)n2C)c1 | inconclusive [quencher, partial curve]
21 | O=C(COc1cccnc1[N+](=O)[O-])N1CCN(S(=O)(=O)c2ccccc2)CC1 | inconclusive [falling, full curve, poor fit]
22 | COc1cccc(-c2cc(C(=O)Nc3cc(OC)c(OC)c(OC)c3)on2)c1 | inconclusive [falling, partial curve, poor fit]

Row | Compound | Potency
23 | CCOC(=O)C1(CCc2ccccc2)CCN(Cc2cccc3nccnc23)CC1 | inconclusive [rising, single point]
24 | C=C1c2cccc(O)c2C(O)=C2C(=O)[C@]3(O)C(O)=C(C(N)=O)C(=O)C(N(C)C)C3C(O)C12 (stereo partly specified) | active: 39.8 µM [quencher]
25 | COc1ccc(-c2ccc(NS(=O)(=O)c3ccc(F)c(C(F)(F)F)c3)cc2)nn1 | active: 224 µM [quencher]
26 | Cc1nc2ccn(Cc3ccco3)c(=O)c2cc1C(=O)N1CCN(c2ccccc2F)CC1 | inactive
27 | CCOC(=O)/C=C(/C)N1N=C(c2ccc(OC)cc2)CC1c1cccc([N+](=O)[O-])c1 (stereo unspecified) | inconclusive [falling, full curve, poor fit]
28 | COc1cccc(OCc2nc3ccccc3n2CCOc2ccccc2)c1 | inconclusive [quencher, partial curve]
29 | Oc1c(C2=NCCNC(C(F)(F)F)=C2)ccc2ccccc12 | inactive
30 | Cc1nc(-c2ccccc2)sc1CCNC(=O)c1ccco1 | inconclusive [quencher, full curve]
31 | N#Cc1c(N)nc(SCC(=O)C23CC4CC(CC(C4)C2)C3)c(C#N)c1-c1ccc(Cl)cc1 | inactive
32 | O=C(OCc1ccccc1Cl)c1ccc(-c2nnn(Cc3ccccc3)n2)cc1 | inconclusive [falling, full curve, poor fit]
33 | Clc1ccc(N/N=C/c2ccncc2)cc1Cl | inconclusive [quencher, partial curve]
34 | O=S(=O)(Nc1cccc(-c2ccc(N3CCCCC3)nn2)c1)c1cccc(F)c1 | inconclusive [falling, partial curve, poor fit]
35 | O=C(NCO)c1cccnc1 | inconclusive [falling, full curve, poor fit]
36 | CC(C)CNC(=O)CCSc1nc(-c2ccc3c(c2)OCO3)cc(C(F)(F)F)n1 | inconclusive [quencher, full curve]
37 | CCn1c(=O)[nH]c(=O)c2c(N)c(C(=O)c3ccccc3OC)sc21 | inconclusive [falling, full curve, poor fit]
38 | O=C(Cn1ccn(-c2ccc(F)cc2)c(=O)c1=O)NCCc1ccccc1 | inconclusive [quencher, full curve]
39 | CN(C(=O)CSc1nnc(-c2ccccc2)c(-c2ccccc2)n1)C1CCS(=O)(=O)C1 (stereo unspecified) | inconclusive [falling, full curve, poor fit]
40 | COc1ccc(/C=N/NC(=O)/C(=C/c2ccccc2)CCO)cc1 | inconclusive [falling, full curve, poor fit]
41 | CCC(C)(C)C(=O)Nc1cc([N+](=O)[O-])ccc1F | active: 0.1 µM [quencher]
42 | Cc1cc(C)cc(NC2=CC(c3cccc(F)c3)N(c3cc(C)cc(C)c3)C2=O)c1 (stereo unspecified) | inactive
43 | CCn1c(C(=O)N2CCC(C(=O)NCCc3ccc(OC)cc3OC)CC2)cc2sccc21 | active: 22.4 µM [quencher]
44 | CCN(CCCNC(=O)c1cc2cc3ccc(C)cc3nc2s1)c1ccccc1 | inactive

Row | Compound | Potency
45 | O=c1c(=O)n(-c2cccc(Cl)c2)ccn1Cc1cccc(F)c1 | inconclusive [quencher, full curve]
46 | COc1cccc(-c2nc(CSCC(=O)NCCc3ccc(Cl)cc3)c(C)o2)c1 | inconclusive [falling, full curve, poor fit]
47 | Cc1nnc(SCC(=O)Nc2ccc(Br)cc2)[nH]c1=O | active: 44.7 µM [quencher]
48 | C=C(C)C(=O)OCCOCC | inconclusive [falling, partial curve, poor fit]
49 | CCc1ccc(NC(=O)CN2C(=O)C3(SCC(=O)N3c3ccccc3)c3ccccc32)cc1 (stereo unspecified) | inconclusive [falling, partial curve, poor fit]
50 | O=c1cc(-c2ccc(O)cc2)oc2c(-c3cc(-c4cc(=O)c5c(O)cc(O)cc5o4)ccc3O)c(O)ccc12 | inconclusive [falling, single point]
51 | CCOc1ccc2nc(N3CCCC(C(=O)Nc4cc(Cl)c(OC)cc4OC)C3)sc2c1 (stereo unspecified) | inconclusive [falling, full curve, poor fit]
52 | Cc1c(C(=O)Nc2cccc(-c3nc4ccccc4s3)c2)oc2ccccc12 | inconclusive [falling, full curve, poor fit]
53 | CCNc1ccc(C(=O)OCC(=O)NCCN2C(=O)CSC2=O)cc1[N+](=O)[O-] | inactive
54 | NC(=O)C1(N2CCCCC2)CCN(C(=O)Nc2ccc(F)cc2F)CC1 | inconclusive [falling, partial curve, poor fit]
55 | O=C1CC(c2ccccc2)=NN1c1nc(-c2ccccc2)cs1 | active: 31.6 µM [quencher]
56 | Cc1ccc(Cn2ccnc2SCC(=O)Nc2nc3ccccc3s2)cc1 | inconclusive [falling, full curve, poor fit]
57 | COc1ccc(/C=N/N=C2/CC(C)(C)Cc3n[nH]c(=O)cc32)cc1 | inactive
58 | Cc1cc2cc(C(c3nnnn3CC3CCCO3)N3CCCc4ccccc43)c(=O)[nH]c2cc1C (stereo unspecified) | inactive
59 | CCOC(=O)/C(C#N)=C1\SS/C(=C(/C#N)C(=O)OCC)S1 | inactive
60 | CCOC(=O)c1ccc2c(c1)C1C=CCC1C(C(=O)O)N2 (stereo unspecified) | inconclusive [quencher, partial curve]
61 | CCOC(=O)c1ccc(NC(=O)CCn2ccc(C)n2)cc1 | inconclusive [quencher, partial curve]
62 | CCN(CC)c1ccc(/C=C2/C(=O)c3ccc(C(=O)O)cc3C2=O)cc1 | inconclusive [quencher, partial curve]
63 | COc1ccc(C2=Nn3c(nnc3-c3cccc(OC)c3OC)SC2)cc1OC | inactive
64 | CCN(CC)c1ccc(/C=C2\C(=O)c3ccc(C(=O)O)cc3C2=O)cc1 | inconclusive [quencher, partial curve]
65 | CC(=O)c1ccc(NC(=O)c2nc(-c3ccc(C)cc3)n3c2CCCCC3)cc1 | inconclusive [falling, full curve, poor fit]
66 | COc1ccc(CNc2nc3ccccc3c3nc(-c4ccccc4)nn23)cc1 | inconclusive [falling, full curve, poor fit]

Source: PubChem BioAssay AID1479 (National Center for Advancing Translational Sciences (NCATS), 2009)
